Consider 31 molecules from PMC9911399, “Two distinct binding modes provide the RNA-binding protein RbFox with extraordinary sequence specificity”.

The chains are these.
T1: RBFOX1 RRM (Homo sapiens, UniProt Q9NWB1 109-208)
T1 sequence: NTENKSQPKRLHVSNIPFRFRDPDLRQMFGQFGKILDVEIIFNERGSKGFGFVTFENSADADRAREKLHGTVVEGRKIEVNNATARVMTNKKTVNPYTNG

B1: GCACUGU (DNA:RNA)
RNA: GGGAGACCGGAAUUCAGAUUGUCCGCACUGUUUAAAUCCCGUCGUAGCCACCA
DNA 1: CAATCTGAATTCCGGTCTCCC
DNA 2: TGGTGGCTACGACGGGATT
B2: AUGAACU (DNA:RNA)
RNA: B1 RNA with G25A, C26U, A27G, C28A, U29A, G30C
DNA 1: CAATCTGAATTCCGGTCTCCC
DNA 2: TGGTGGCTACGACGGGATT
B3: GAGUAGG (DNA:RNA)
RNA: B1 RNA with C26A, A27G, C28U, U29A, U31G
DNA 1: CAATCTGAATTCCGGTCTCCC
DNA 2: TGGTGGCTACGACGGGATT
B4: UAUAUUA (DNA:RNA)
RNA: B1 RNA with G25U, C26A, A27U, C28A, G30U, U31A
DNA 1: CAATCTGAATTCCGGTCTCCC
DNA 2: TGGTGGCTACGACGGGATT
B5: UUGGGCG (DNA:RNA)
RNA: GGGAGACCGGAAUUCAGAUUGUCCUUGGGCGUUAAAUCCCGUCGUAGCCACCA
DNA 1: CAATCTGAATTCCGGTCTCCC
DNA 2: TGGTGGCTACGACGGGATT
B6: UAGUAGU (DNA:RNA)
RNA: B1 RNA with G25U, C26A, A27G, C28U, U29A
DNA 1: CAATCTGAATTCCGGTCTCCC
DNA 2: TGGTGGCTACGACGGGATT
B7: UAACCGG (DNA:RNA)
RNA: B1 RNA with G25U, C26A, U29C, U31G
DNA 1: CAATCTGAATTCCGGTCTCCC
DNA 2: TGGTGGCTACGACGGGATT
B8: GUACGUC (DNA:RNA)
RNA: B1 RNA with C26U, U29G, G30U, U31C
DNA 1: CAATCTGAATTCCGGTCTCCC
DNA 2: TGGTGGCTACGACGGGATT
B9: UCGUUAC (DNA:RNA)
RNA: B1 RNA with G25U, A27G, C28U, G30A, U31C
DNA 1: CAATCTGAATTCCGGTCTCCC
DNA 2: TGGTGGCTACGACGGGATT
B10: ACCCCCA (DNA:RNA)
RNA: B1 RNA with G25A, A27C, U29C, G30C, U31A
DNA 1: CAATCTGAATTCCGGTCTCCC
DNA 2: TGGTGGCTACGACGGGATT
B11: CUAUAUC (DNA:RNA)
RNA: B1 RNA with G25C, C26U, C28U, U29A, G30U, U31C
DNA 1: CAATCTGAATTCCGGTCTCCC
DNA 2: TGGTGGCTACGACGGGATT
B12: GCCCAGG (DNA:RNA)
RNA: B1 RNA with A27C, U29A, U31G
DNA 1: CAATCTGAATTCCGGTCTCCC
DNA 2: TGGTGGCTACGACGGGATT
B13: CGAGGGU (DNA:RNA)
RNA: B1 RNA with G25C, C26G, C28G, U29G
DNA 1: CAATCTGAATTCCGGTCTCCC
DNA 2: TGGTGGCTACGACGGGATT
B14: GAGGUAC (DNA:RNA)
RNA: B1 RNA with C26A, A27G, C28G, G30A, U31C
DNA 1: CAATCTGAATTCCGGTCTCCC
DNA 2: TGGTGGCTACGACGGGATT
B15: AAGCGAA (DNA:RNA)
RNA: B5 RNA with U25A, U26A, G28C, C30A, G31A
DNA 1: CAATCTGAATTCCGGTCTCCC
DNA 2: TGGTGGCTACGACGGGATT
B16: CGUCCUU (DNA:RNA)
RNA: B1 RNA with G25C, C26G, A27U, U29C, G30U
DNA 1: CAATCTGAATTCCGGTCTCCC
DNA 2: TGGTGGCTACGACGGGATT
B17: ACCCCUU (DNA:RNA)
RNA: B1 RNA with G25A, A27C, U29C, G30U
DNA 1: CAATCTGAATTCCGGTCTCCC
DNA 2: TGGTGGCTACGACGGGATT
B18: GCGGGGA (DNA:RNA)
RNA: B1 RNA with A27G, C28G, U29G, U31A
DNA 1: CAATCTGAATTCCGGTCTCCC
DNA 2: TGGTGGCTACGACGGGATT
B19: GUUCUAG (DNA:RNA)
RNA: B1 RNA with C26U, A27U, G30A, U31G
DNA 1: CAATCTGAATTCCGGTCTCCC
DNA 2: TGGTGGCTACGACGGGATT
B20: CGUUCAC (DNA:RNA)
RNA: GGGAGACCGGAAUUCAGAUUGUCCCGUUCACUUAAAUCCCGUCGUAGCCACCA
DNA 1: CAATCTGAATTCCGGTCTCCC
DNA 2: TGGTGGCTACGACGGGATT
B21: UACUCAU (DNA:RNA)
RNA: B20 RNA with C25U, G26A, U27C, C31U
DNA 1: CAATCTGAATTCCGGTCTCCC
DNA 2: TGGTGGCTACGACGGGATT
B22: CCCUCCU (DNA:RNA)
RNA: B20 RNA with G26C, U27C, A30C, C31U
DNA 1: CAATCTGAATTCCGGTCTCCC
DNA 2: TGGTGGCTACGACGGGATT
B23: ACGAACG (DNA:RNA)
RNA: B5 RNA with U25A, U26C, G28A, G29A
DNA 1: CAATCTGAATTCCGGTCTCCC
DNA 2: TGGTGGCTACGACGGGATT
B24: AUACGAU (DNA:RNA)
RNA: B1 RNA with G25A, C26U, U29G, G30A
DNA 1: CAATCTGAATTCCGGTCTCCC
DNA 2: TGGTGGCTACGACGGGATT
B25: GACACUA (DNA:RNA)
RNA: B20 RNA with C25G, G26A, U27C, U28A, A30U, C31A
DNA 1: CAATCTGAATTCCGGTCTCCC
DNA 2: TGGTGGCTACGACGGGATT
B26: UGCUACU (DNA:RNA)
RNA: B20 RNA with C25U, U27C, C29A, A30C, C31U
DNA 1: CAATCTGAATTCCGGTCTCCC
DNA 2: TGGTGGCTACGACGGGATT
B27: CGUUCCA (DNA:RNA)
RNA: B20 RNA with A30C, C31A
DNA 1: CAATCTGAATTCCGGTCTCCC
DNA 2: TGGTGGCTACGACGGGATT
B28: CCGAAAU (DNA:RNA)
RNA: B20 RNA with G26C, U27G, U28A, C29A, C31U
DNA 1: CAATCTGAATTCCGGTCTCCC
DNA 2: TGGTGGCTACGACGGGATT
B29: UUAGUUG (DNA:RNA)
RNA: B5 RNA with G27A, G29U, C30U
DNA 1: CAATCTGAATTCCGGTCTCCC
DNA 2: TGGTGGCTACGACGGGATT
B30: CGAACGC (DNA:RNA)
RNA: B20 RNA with U27A, U28A, A30G
DNA 1: CAATCTGAATTCCGGTCTCCC
DNA 2: TGGTGGCTACGACGGGATT
B31: UAUCUGG (DNA:RNA)
RNA: B1 RNA with G25U, C26A, A27U, U31G
DNA 1: CAATCTGAATTCCGGTCTCCC
DNA 2: TGGTGGCTACGACGGGATT

Substitutions are numbered along the chain they refer to; changes in the protein carry UniProt numbers. Some of the results follow.

The target of the test is T1, RBFOX1 RRM. The test can be described thus: EMSA; HiTS-Eq, 1 nM pool, 10 min; buffer printed only for the single-RNA assays: 10 mM Tris pH 7.5, 150 mM NaCl, 3.4 mM EDTA, 0.001% NP-40, 30 C. To be noted: tags: His6 N-terminal (pET28a); label: 5' 32P. Put shortly: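 Purified RbFox RRM (wild type or mutant) was equilibrated for 10 min in 50 µL with 1 nM of a 5′-radiolabelled pool of RNA with 7 randomized nucleotides, its flanks annealed to DNA oligonucleotides, across increasing protein concentrations. Free RNA was separated by 8% native PAGE, excised, reverse-transcribed, PCR-barcoded and sequenced on an Illumina HiSeq 2500. Relative association constants came from read-count changes of each variant against the control reaction, normalised to the cognate motif.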
In general terms: A gel shift assay detects complexes by their altered migration in electrophoresis.
In the case of B1, the binding signal was 0.0136 KA relative to UGCAUGU. Take B2: the binding signal was 0.00612 KA relative to UGCAUGU. Then B3, with 0.0115 KA relative to UGCAUGU; and B4, with 0.00424 KA relative to UGCAUGU; and B5, with 0.0138 KA relative to UGCAUGU.

In the case of B6, the binding signal was 0.0117 KA relative to UGCAUGU. Then B7, with 0.00573 KA relative to UGCAUGU; and B8, with 0.00944 KA relative to UGCAUGU. Then B9, with 0.0137 KA relative to UGCAUGU; and B10, with 0.00211 KA relative to UGCAUGU. The figure for B11 is 0.00386 KA relative to UGCAUGU. Take B12: the binding signal was 0.0161 KA relative to UGCAUGU. The figure for B13 is 0.00789 KA relative to UGCAUGU; for B14 it is 0.0148 KA relative to UGCAUGU; for B15 it is 0.00487 KA relative to UGCAUGU. For the molecule B16, the binding signal is 0.00594 KA relative to UGCAUGU. Take B17: the binding signal was 0.00262 KA relative to UGCAUGU. On to B18, for which the binding signal was 0.0289 KA relative to UGCAUGU. Then B19, with 0.0139 KA relative to UGCAUGU. On to B20, for which the binding signal was 0.00842 KA relative to UGCAUGU. With B21, the binding signal is 0.00412 KA relative to UGCAUGU. The figure for B22 is 0.000455 KA relative to UGCAUGU; for B23 it is 0.0126 KA relative to UGCAUGU; for B24 it is 0.00313 KA relative to UGCAUGU. Then B25, with 0.00229 KA relative to UGCAUGU. Then B26, with 0.0158 KA relative to UGCAUGU. Take B27: the binding signal was 0.00538 KA relative to UGCAUGU. Then B28, with 0.00341 KA relative to UGCAUGU; and B29, with 0.0187 KA relative to UGCAUGU; and B30, with 0.00967 KA relative to UGCAUGU. The figure for B31 is 0.0133 KA relative to UGCAUGU.
